{"source": "PubChem BioAssay AID2675", "about": "(National Center for Advancing Translational Sciences (NCATS), 2010)", "note": "About 100 (0.036%) of roughly 280,000 compounds were called active. Inconclusive results, whose numbers are uncertain, are shown with a selection of clear calls. The call rests on the fitted dose curve; in most records, active means well fitted inhibition curve with a large enough effect in the signal ratio, with a control signal flat (not every such curve was filed as active); inconclusive means small, poorly fitted or top-dose-only effect, or effect the other way, or a change in a side signal; inactive means no such curve, though single readings can be large or run the other way; the % refers to the signal ratio. Potencies beside an inconclusive call are fits to weak or partial responses and may not hold up. A note “side channel” means that the fit belongs to a control or component signal, not to the main read-out. On the % scale 0 is the no-effect control and ±100 the full control effect; potency means the concentration at half of the fitted maximal effect; tags describe the fitted curve by direction and shape or compound fluorescence and quenching.", "data": [{"molecular_target": "Muscleblind-like protein 1 (Homo sapiens) (UniProt Q9NR56)", "sequence (Q9NR56 whole entry, looked up)": "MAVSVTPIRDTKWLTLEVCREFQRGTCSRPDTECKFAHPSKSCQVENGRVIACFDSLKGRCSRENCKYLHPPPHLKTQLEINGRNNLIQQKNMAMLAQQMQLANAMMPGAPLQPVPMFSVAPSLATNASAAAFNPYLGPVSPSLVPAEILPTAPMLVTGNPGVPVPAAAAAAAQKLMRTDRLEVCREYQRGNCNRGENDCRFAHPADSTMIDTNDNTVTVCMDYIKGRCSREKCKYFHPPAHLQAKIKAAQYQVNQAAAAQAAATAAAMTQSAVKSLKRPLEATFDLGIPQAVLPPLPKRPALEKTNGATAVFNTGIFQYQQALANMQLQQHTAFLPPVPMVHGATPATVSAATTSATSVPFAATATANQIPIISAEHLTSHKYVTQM", "experiment": "qHTS Assay for Inhibitors of MBNL1-poly(CUG) RNA binding", "details": "TR-FRET MBNL1-His/biotin-(CUG)12 binding, 665/545 ratio; activity change, negative = inhibition: at 57.5 µM (top of the series)", "method_in_brief": "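TR-FRET between His-tagged MBNL1 and biotin-(CUG)12 RNA, detected with Tb anti-His antibody (0.055 ng/ul) and streptavidin-XL665 (5 nM), 60 min at room temperature. Compounds titrated 92 nM to 58 uM; 665/545 nm ratio normalized to buffer and complex controls.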", "values": [{"smiles": "CN(c1ccccc1)S(=O)(=O)c1cccc(NC(=O)Cn2cnc3c2c(=O)n(C)c(=O)n3C)c1", "activity change, negative = inhibition": "inactive: -4.44%"}, {"smiles": "O=C(c1ccc([N+](=O)[O-])cc1)N(c1ccccn1)c1ccccn1", "Potency": "inconclusive: 15.8 µM [quencher, side channel, partial curve]"}, {"smiles": "O=C(O)COc1ccc(/C=C/C(=O)c2ccc3ccccc3c2)cc1", "Potency": "inconclusive: 25.1 µM [quencher, side channel, partial curve]"}, {"smiles": "CC(=O)C1=C(O)C(=O)N(c2ccc(S(N)(=O)=O)cc2)C1c1ccccc1F", "note": "(stereo not given)", "Potency": "inconclusive: 25.1 µM [quencher, side channel, partial curve]"}, {"smiles": "N#C/C(=C\\c1cn[nH]c1-c1ccccc1Br)C(=O)O", "Potency": "inconclusive: 28.2 µM [quencher, side channel, partial curve]"}, {"smiles": "O=C(NNS(=O)(=O)c1ccc2ccccc2c1)c1cccs1", "Potency": "inconclusive: 200 µM [inhibitor, partial curve]"}, {"smiles": "CC1CN(c2ccc(C(=O)c3ccccc3C(=O)O)cc2[N+](=O)[O-])CC(C)O1", "note": "(stereo not given)", "Potency": "inconclusive: 28.2 µM [quencher, single point]"}, {"smiles": "COc1ccccc1/C=N/NC(=O)Cn1cnc([N+](=O)[O-])n1", "Potency": "inconclusive: 15.8 µM [quencher, side channel, partial curve]"}, {"smiles": "CCCN1C(=O)S/C(=C/c2ccc(N3CCOCC3)o2)C1=O", "Potency": "inconclusive: 7.08 µM [quencher, side channel, partial curve]"}, {"smiles": "Cc1c(CN(C)C)c2c(n1Cc1ccccc1)C(=O)c1ccccc1-2", "Potency": "inconclusive: 15.8 µM [quencher, side channel, partial curve]"}, {"smiles": "O=C1Nc2ccc(S(=O)(=O)N(CCO)CCO)c3cccc1c23", "Potency": "inconclusive: 14.1 µM [quencher, side channel, partial curve]"}, {"smiles": "Cc1cc(O)cc2c1C(=O)/C(=C/c1ccco1)O2", "Potency": "inconclusive: 14.1 µM [quencher, side channel, partial curve]"}, {"smiles": "Cc1ccc(S(=O)(=O)N/N=C/c2cc([N+](=O)[O-])ccc2O)cc1[N+](=O)[O-]", "Potency": "inconclusive: 31.6 µM [quencher, side channel, single point]"}, {"smiles": "CC(=O)Oc1c(Br)cc(N(C(C)=O)S(=O)(=O)c2ccccc2)c2ccccc12", "Potency": "inconclusive: 28.2 µM [quencher, side channel, single point]"}, {"smiles": "C=CCNC(=S)Nc1ccc(C)cc1[N+](=O)[O-]", "Potency": "inconclusive: 14.1 µM [quencher, side channel, partial curve]"}, {"smiles": "Oc1ccc(/C=N/Nc2nccnc2Cl)c(O)c1", "Potency": "inconclusive: 14.1 µM [quencher, side channel, partial curve]"}, {"smiles": "CS(=O)(=O)N(CC(=O)Nc1cccc([N+](=O)[O-])c1)c1ccccc1F", "Potency": "inconclusive: 28.2 µM [quencher, side channel, partial curve]"}, {"smiles": "O=C(CCN1CCCCCC1)Nc1ccc2c(c1)OCCO2", "activity change, negative = inhibition": "inactive: -1.82%"}, {"smiles": "O=C(NC(CO)(CO)CO)c1coc(=O)c(Br)c1", "Potency": "inconclusive: 14.1 µM [quencher, side channel, partial curve]"}, {"smiles": "CSCCC(Nc1ncnc2ccc(Br)cc12)C(=O)O", "note": "(stereo not given)", "activity change, negative = inhibition": "inactive: 18.9%"}, {"smiles": "COc1ccc(NCc2cc3ccccc3[nH]c2=O)cc1", "Potency": "inconclusive: 39.8 µM [quencher, single point]"}, {"smiles": "COCc1cc(C)nc2sc(C(=O)Nc3ccccc3F)c(N)c12", "Potency": "inconclusive: 17.8 µM [quencher, side channel, partial curve]"}, {"smiles": "O=[N+]([O-])c1ccc2ncnc(N3CCN(Cc4ccc5c(c4)OCO5)CC3)c2c1", "Potency": "inconclusive: 11.2 µM [quencher, side channel, partial curve]"}, {"smiles": "COCC1CCN(Cc2cn(-c3ccccc3F)nc2-c2cc(C)sc2C)CC1", "activity change, negative = inhibition": "inactive: -5.43%"}, {"smiles": "Cc1ccc(N2C(=O)CSC23C(=O)Nc2ccccc23)cc1", "note": "(stereo not given)", "Potency": "inconclusive: 39.8 µM [quencher, side channel, single point]"}, {"smiles": "O=S(=O)(NCCSc1nc2ccccc2o1)c1ccccc1", "activity change, negative = inhibition": "inactive: -13.9%"}, {"smiles": "Cc1ccc([N+](=O)[O-])cc1NC(=O)C(C)Sc1nnc(C)n1CC1CCCO1", "note": "(stereo not given)", "Potency": "inconclusive: 25.1 µM [quencher, side channel, single point]"}, {"smiles": "Cc1ccc(S(=O)(=O)/N=C2/NC(=O)/C(=C/c3cc([N+](=O)[O-])ccc3O)S2)cc1", "Potency": "inconclusive: 39.8 µM [quencher, side channel, single point]"}, {"smiles": "CCN1CCN(CCC(=O)Nc2cc(OC)cc(OC)c2)CC1", "activity change, negative = inhibition": "inactive: -1.4%"}, {"smiles": "O=C(CC1SCCNC1=O)Nc1cccc([N+](=O)[O-])c1", "note": "(stereo not given)", "Potency": "inconclusive: 17.8 µM [quencher, side channel, partial curve]"}, {"smiles": "O=C(c1ccccc1)c1nnc(-c2ccncc2)o1", "Potency": "inconclusive: 14.1 µM [quencher, side channel, partial curve]"}, {"smiles": "Cc1nn(-c2ccccc2)c(N2CCCC2)c1/C=N/NC(=S)Nc1ccccc1F", "Potency": "inconclusive: 39.8 µM [fluorescent, side channel, single point]"}, {"smiles": "COc1ccc2oc(-c3ccccc3)c(C(N)=O)c2c1", "activity change, negative = inhibition": "inactive: 20.3%"}, {"smiles": "O=C(N/N=C/c1ccncc1)c1sc2ccccc2c1Cl", "Potency": "inconclusive: 12.6 µM [quencher, side channel, partial curve]"}, {"smiles": "CC(=O)NC(CC(C)C)C(=O)NC(Cc1ccccc1)C(N)=O", "note": "(stereo not given)", "activity change, negative = inhibition": "inactive: 0.817%"}, {"smiles": "CC(=O)N1CCc2cc(Br)cc(S(=O)(=O)NCCCN(C)Cc3ccccc3)c21", "Potency": "inconclusive: 3.16 µM [inhibitor, full curve]"}, {"smiles": "O=C(OCc1ccccc1)C1CCCN1C(=O)c1cccs1", "note": "(stereo not given)", "activity change, negative = inhibition": "inactive: -1.73%"}, {"smiles": "CCOC(=O)c1cc(NC(=O)c2cccnc2)cc(C(=O)OCC)c1", "Potency": "inconclusive: 7.08 µM [quencher, side channel, single point]"}, {"smiles": "N#Cc1ncc(Cl)c2ccccc12", "Potency": "inconclusive: 17.8 µM [quencher, side channel, single point]"}, {"smiles": "O=c1nc(N/N=C/c2ccco2)cn[nH]1", "Potency": "inconclusive: 44.7 µM [quencher, side channel, partial curve, poor fit]"}, {"smiles": "COCc1nnc(NS(=O)(=O)c2ccc([N+](=O)[O-])cc2)s1", "Potency": "inconclusive: 17.8 µM [quencher, side channel, partial curve]"}, {"smiles": "CCOC(=O)c1c(COC(=O)c2ccco2)nc2ccccc2[n+]1[O-]", "Potency": "inconclusive: 12.6 µM [quencher, partial curve]"}, {"smiles": "Cc1cc(C(=O)NNC(=S)NC(=O)/C=C/c2ccccc2Cl)n[nH]1", "Potency": "inconclusive: 35.5 µM [quencher, side channel, single point]"}, {"smiles": "COc1cc2[nH]c(=S)n(C3CC3)c(=O)c2cc1OC", "activity change, negative = inhibition": "inactive: 2.26%"}, {"smiles": "CCc1sc(C(=O)Nc2ccc(NC(C)=O)cc2)cc1C", "Potency": "inconclusive: 0.0891 µM [fluorescent, side channel, full curve]"}, {"smiles": "CC(C)c1ccccc1OCC(O)CN1CCN(S(=O)(=O)c2ccc([N+](=O)[O-])cc2)CC1", "note": "(stereo not given)", "Potency": "inconclusive: 15.8 µM [quencher, side channel, partial curve]"}, {"smiles": "Cc1ccc(OCc2ccc(C(=O)N3CCCC3)o2)c([N+](=O)[O-])c1", "Potency": "inconclusive: 25.1 µM [quencher, side channel, partial curve]"}, {"smiles": "Nc1cc(=O)[nH]c(SCC(=O)Nc2cc([N+](=O)[O-])ccc2Cl)n1", "Potency": "inconclusive: 14.1 µM [quencher, side channel, partial curve]"}, {"smiles": "COc1ccc([C@@H]2[C@@H](C(=O)C(C)(C)C)N3N=Cc4ccccc4[C@@H]3C23C(=O)OC(C)(C)OC3=O)cc1OC", "Potency": "inconclusive: 10 µM [quencher, side channel, partial curve]"}, {"smiles": "Cc1nc(SCCC(=O)O)c2ccccc2n1", "Potency": "inconclusive: 12.6 µM [fluorescent, side channel, partial curve]"}, {"smiles": "CCc1ccc(N(C(=O)c2snc(C(N)=O)c2N)C(C(=O)NCC2CCCO2)c2cccs2)cc1", "note": "(stereo not given)", "Potency": "inconclusive: 28.2 µM [quencher, side channel, partial curve]"}, {"smiles": "Cn1c(SCC(=O)NC2CC2)nnc1-c1cccs1", "Potency": "inconclusive: 17.8 µM [quencher, side channel, partial curve]"}, {"smiles": "O=C(O)c1ccc(/C=C2\\CCCc3c2nc2ccccc2c3C(=O)O)cc1", "Potency": "inconclusive: 22.4 µM [quencher, side channel, single point]"}, {"smiles": "Cc1ccc(C(=O)N/C(=C\\c2sccc2C)C(=O)NCc2ccco2)cc1", "Potency": "inconclusive: 31.6 µM [quencher, side channel, single point]"}, {"smiles": "CN(C)c1ccc(N=Nc2ccccc2Br)cc1", "activity change, negative = inhibition": "inactive: 12.5%"}, {"smiles": "COc1cc(/C=C2/SC(=Nc3ccc(O)cc3)NC2=O)ccc1O", "Potency": "inconclusive: 28.2 µM [quencher, side channel, single point]"}, {"smiles": "Cc1ccc(NC(=O)CCNS(=O)(=O)c2cccc3nsnc23)cc1", "Potency": "inconclusive: 22.4 µM [quencher, side channel, partial curve]"}, {"smiles": "CC1C2CC(CC1(C)C)N(C(=O)Nc1ccc3nccnc3c1)C2", "note": "(stereo not given)", "Potency": "inconclusive: 15.8 µM [quencher, partial curve]"}, {"smiles": "Cc1[nH]c2ccccc2c1C(=O)C(C)OC(=O)c1ccc([N+](=O)[O-])o1", "note": "(stereo not given)", "Potency": "inconclusive: 14.1 µM [quencher, side channel, partial curve]"}, {"smiles": "CCOC(=O)c1nc(NNC(=O)c2ccc([N+](=O)[O-])cc2)sc1C", "Potency": "inconclusive: 11.2 µM [quencher, side channel, partial curve]"}]}]}
